# The other results are listed elsewhere or left out.
# B1: PX14367A-bth-493-35-493 (Bacteroides thetaiotaomicron) (protein)
# chain: VSSDQVAVAGNAERLFNGAWYNLFEYGTTYANIGYRALQCQDDMMASDVVSRPKYGFNSSYQFNDVAIPSDGRTSFAWYLIYKTIDNCNTAISIKGDSEELRQAQGQALALRAFCYLHLVQHYQFTYLKDKDAPCVPIYTEPTTSGTKPKGKSTVAQVYQQIFDDLNLAQDYLTNYVRKGDGQKFKPNTDVVNGLMARAYLLTGQWGEAAKAAEAARKGYSLMTTTAEYEGFNNISNKEWIWGSPQTLSQSDASYNFYYLDATYVGAYSSFMADPHLMDTFVKGDIRLPLFQWMREGYLGYKKFHMRSDDTADLVLMRSAEMYLIEAEAKVRDGVALDQAVAPLNTLRTARGVGNYDVTGKTKEQVIDEILMERRRELWGEGFGITDVLRNQKAVERMALSEDMQKTEVDCWQEGGSFAKRNPLGHWFLNFPDGKAFSANSSYYLYAIPEKEINANPNL
# How the values were obtained:
# Assay in all cases: glycan array binding signal (z-score within array); higher = stronger binding
# Conditions in all cases: glycan notation: IUPAC condensed, linker removed
# [1] = biological target: Gal(b1-4)GlcNAc(b1-3)Gal(b1-4)GlcNAc(b1-2)[Gal(b1-4)GlcNAc(b1-3)Gal(b1-4)GlcNAc(b1-6)]Man(a1-6)[Gal(b1-4)GlcNAc(b1-3)Gal(b1-4)GlcNAc(b1-2)Man(a1-3)]Man(b1-4)GlcNAc(b1-4)GlcNAc
# Summary of the method: (§1)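 The binding signal is a Z-score computed within each array and averaged over linkers. Arrays of the same protein sequence at different concentrations or buffers were also averaged together. Data originate from 3228 arrays in the Consortium for Functional Glycomics database, kept only where the protein sequence was available.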
# [2] = biological target: Gal(b1-4)GlcNAc(b1-3)Gal(b1-4)GlcNAc(b1-2)[Gal(b1-4)GlcNAc(b1-3)Gal(b1-4)GlcNAc(b1-6)]Man(a1-6)[Gal(b1-4)GlcNAc(b1-3)Gal(b1-4)GlcNAc(b1-2)Man(a1-3)]Man(b1-4)GlcNAc(b1-4)[Fuc(a1-6)]GlcNAc
# Summary of the method: as §1
# [3] = biological target: Gal(b1-4)GlcNAc(b1-3)Gal(b1-4)GlcNAc(b1-3)Gal(b1-4)GlcNAc
# Summary of the method: as §1
# [4] = biological target: Gal(b1-4)GlcNAc(b1-3)Gal(b1-4)GlcNAc(b1-3)Gal(b1-4)GlcNAc(b1-2)Man(a1-3)[Gal(b1-4)GlcNAc(b1-3)Gal(b1-4)GlcNAc(b1-3)Gal(b1-4)GlcNAc(b1-2)Man(a1-6)]Man(b1-4)GlcNAc(b1-4)GlcNAc
# Summary of the method: as §1
# [5] = biological target: Gal(b1-4)GlcNAc(b1-3)Gal(b1-4)GlcNAc(b1-3)Gal(b1-4)GlcNAc(b1-2)Man(a1-3)[Gal(b1-4)GlcNAc(b1-3)Gal(b1-4)GlcNAc(b1-3)Gal(b1-4)GlcNAc(b1-2)Man(a1-6)]Man(b1-4)GlcNAc(b1-4)[Fuc(a1-6)]GlcNAc
# Summary of the method: as §1
# [6] = biological target: Gal(b1-4)GlcNAc(b1-3)Gal(b1-4)GlcNAc(b1-3)Gal(b1-4)GlcNAc(b1-2)[Gal(b1-4)GlcNAc(b1-3)Gal(b1-4)GlcNAc(b1-3)Gal(b1-4)GlcNAc(b1-6)]Man(a1-6)[Gal(b1-4)GlcNAc(b1-3)Gal(b1-4)GlcNAc(b1-3)Gal(b1-4)GlcNAc(b1-2)Man(a1-3)]Man(b1-4)GlcNAc(b1-4)[Fuc(a1-6)]GlcNAc
# Summary of the method: as §1
# [7] = biological target: Gal(b1-4)GlcNAc(b1-3)Gal(b1-4)GlcNAc(b1-3)Gal(b1-4)GlcNAc(b1-3)Gal(b1-4)GlcNAc(b1-2)Man(a1-3)[Gal(b1-4)GlcNAc(b1-3)Gal(b1-4)GlcNAc(b1-3)Gal(b1-4)GlcNAc(b1-3)Gal(b1-4)GlcNAc(b1-2)Man(a1-6)]Man(b1-4)GlcNAc(b1-4)GlcNAc
# Summary of the method: as §1
# [8] = biological target: Gal(b1-4)GlcNAc(b1-3)Gal(b1-4)GlcNAc(b1-3)Gal(b1-4)GlcNAc(b1-3)Gal(b1-4)GlcNAc(b1-2)Man(a1-3)[Gal(b1-4)GlcNAc(b1-3)Gal(b1-4)GlcNAc(b1-3)Gal(b1-4)GlcNAc(b1-3)Gal(b1-4)GlcNAc(b1-2)Man(a1-6)]Man(b1-4)GlcNAc(b1-4)[Fuc(a1-6)]GlcNAc
# Summary of the method: as §1
# [9] = biological target: Gal(b1-4)GlcNAc(b1-3)Gal(b1-4)GlcNAc(b1-3)Gal(b1-4)GlcNAc(b1-3)Gal(b1-4)GlcNAc(b1-2)[Gal(b1-4)GlcNAc(b1-3)Gal(b1-4)GlcNAc(b1-3)Gal(b1-4)GlcNAc(b1-3)Gal(b1-4)GlcNAc(b1-6)]Man(a1-6)[Gal(b1-4)GlcNAc(b1-3)Gal(b1-4)GlcNAc(b1-3)Gal(b1-4)GlcNAc(b1-3)Gal(b1-4)GlcNAc(b1-2)Man(a1-3)]Man(b1-4)GlcNAc(b1-4)[Fuc(a1-6)]GlcNAc
# Summary of the method: as §1
# [10] = biological target: Gal(b1-4)GlcNAc(b1-3)Gal(b1-4)GlcNAc(b1-3)Gal(b1-4)GlcNAc(b1-3)Gal(b1-4)GlcNAc(b1-3)Gal(b1-4)GlcNAc(b1-2)Man(a1-3)[Gal(b1-4)GlcNAc(b1-3)Gal(b1-4)GlcNAc(b1-3)Gal(b1-4)GlcNAc(b1-3)Gal(b1-4)GlcNAc(b1-3)Gal(b1-4)GlcNAc(b1-2)Man(a1-6)]Man(b1-4)GlcNAc(b1-4)GlcNAc
# Summary of the method: as §1
# [11] = biological target: Gal(b1-4)GlcNAc(b1-3)Gal(b1-4)GlcNAc(b1-3)Gal(b1-4)GlcNAc(b1-3)Gal(b1-4)GlcNAc(b1-3)Gal(b1-4)GlcNAc(b1-2)Man(a1-3)[Gal(b1-4)GlcNAc(b1-3)Gal(b1-4)GlcNAc(b1-3)Gal(b1-4)GlcNAc(b1-3)Gal(b1-4)GlcNAc(b1-3)Gal(b1-4)GlcNAc(b1-2)Man(a1-6)]Man(b1-4)GlcNAc(b1-4)[Fuc(a1-6)]GlcNAc
# Summary of the method: as §1
# [12] = biological target: Gal(b1-4)GlcNAc(b1-3)Gal(b1-4)GlcNAc(b1-3)Gal(b1-4)GlcNAc(b1-3)Gal(b1-4)GlcNAc(b1-3)Gal(b1-4)GlcNAc(b1-2)[Gal(b1-4)GlcNAc(b1-3)Gal(b1-4)GlcNAc(b1-3)Gal(b1-4)GlcNAc(b1-3)Gal(b1-4)GlcNAc(b1-3)Gal(b1-4)GlcNAc(b1-6)]Man(a1-6)[Gal(b1-4)GlcNAc(b1-3)Gal(b1-4)GlcNAc(b1-3)Gal(b1-4)GlcNAc(b1-3)Gal(b1-4)GlcNAc(b1-3)Gal(b1-4)GlcNAc(b1-2)Man(a1-3)]Man(b1-4)GlcNAc(b1-4)[Fuc(a1-6)]GlcNAc
# Summary of the method: as §1
# [13] = biological target: Gal(b1-4)GlcNAc(b1-3)Gal(b1-4)GlcNAc(b1-3)Gal(b1-4)GlcNAc(b1-3)Gal(b1-4)GlcNAc(b1-3)Gal(b1-4)GlcNAc(b1-3)Gal(b1-4)GlcNAc(b1-2)Man(a1-3)[Gal(b1-4)GlcNAc(b1-3)Gal(b1-4)GlcNAc(b1-3)Gal(b1-4)GlcNAc(b1-3)Gal(b1-4)GlcNAc(b1-3)Gal(b1-4)GlcNAc(b1-3)Gal(b1-4)GlcNAc(b1-2)Man(a1-6)]Man(b1-4)GlcNAc(b1-4)GlcNAc
# Summary of the method: as §1
# [14] = biological target: Gal(b1-4)GlcNAc(b1-3)Gal(b1-4)GlcNAc(b1-3)GalNAc
# Summary of the method: as §1
# [15] = biological target: Gal(b1-4)GlcNAc(b1-3)Gal(b1-4)GlcNAc(b1-3)[Gal(b1-4)GlcNAc(b1-3)Gal(b1-4)GlcNAc(b1-6)]GalNAc
# Summary of the method: as §1
# [16] = biological target: Gal(b1-4)GlcNAc(b1-3)Gal(b1-4)GlcNAc(b1-6)[Gal(b1-3)]GalNAc
# Summary of the method: as §1
# [17] = biological target: Gal(b1-4)GlcNAc(b1-3)Gal(b1-4)[Fuc(a1-3)]GlcNAc(b1-3)Gal(b1-4)[Fuc(a1-3)]GlcNAc
# Summary of the method: as §1
# [18] = biological target: Gal(b1-4)GlcNAc(b1-3)GalNAc
# Summary of the method: as §1
# [19] = biological target: Gal(b1-4)GlcNAc(b1-3)[Fuc(a1-3)GlcNAc(b1-6)]Gal(b1-4)Glc
# Summary of the method: as §1
# [20] = biological target: Gal(b1-4)GlcNAc(b1-3)[Gal(b1-4)GlcNAc(b1-6)]Gal(b1-4)GlcNAc
# Summary of the method: as §1
# [21] = biological target: Gal(b1-4)GlcNAc(b1-3)[GlcNAc(b1-6)]Gal(b1-4)GlcNAc
# Summary of the method: as §1
# [22] = biological target: Gal(b1-4)GlcNAc(b1-6)Gal(b1-4)GlcNAc
# Summary of the method: as §1
# [23] = biological target: Gal(b1-4)GlcNAc(b1-6)GalNAc
# Summary of the method: as §1
# [24] = biological target: Gal(b1-4)GlcNAc(b1-6)[Gal(b1-3)]GalNAc
# Summary of the method: as §1
# [25] = biological target: Gal(b1-4)GlcNAc(b1-6)[Gal(b1-4)GlcNAc(b1-3)]GalNAc
# Summary of the method: as §1
# Gal(b1-4)GlcNAc6P = biological target: Gal(b1-4)GlcNAc6P
# Summary of the method: as §1
# Gal(b1-6)Gal = biological target: Gal(b1-6)Gal
# Summary of the method: as §1
# Gal3S(b1-3)GalNAc = biological target: Gal3S(b1-3)GalNAc
# Summary of the method: as §1
# Gal3S(b1-3)GlcNAc = biological target: Gal3S(b1-3)GlcNAc
# Summary of the method: as §1
# [26] = biological target: Gal3S(b1-3)[Fuc(a1-4)]GlcNAc
# Summary of the method: as §1
# Gal3S(b1-4)Glc = biological target: Gal3S(b1-4)Glc
# Summary of the method: as §1
# Gal3S(b1-4)Glc6S = biological target: Gal3S(b1-4)Glc6S
# Summary of the method: as §1
# Gal3S(b1-4)GlcNAc = biological target: Gal3S(b1-4)GlcNAc
# Summary of the method: as §1
# [27] = biological target: Gal3S(b1-4)[Fuc(a1-3)]Glc6S
# Summary of the method: as §1
# [28] = biological target: Gal3S(b1-4)[Fuc(a1-3)]GlcNAc
# Summary of the method: as §1
# [29] = biological target: Gal3S(b1-4)[Fuc(a1-3)]GlcNAc6S
# Summary of the method: as §1
# Gal3S4S(b1-4)GlcNAc = biological target: Gal3S4S(b1-4)GlcNAc
# Summary of the method: as §1
binder,measurement,setting,value
B1,glycan array binding signal (z-score),[1],0.133
same,glycan array binding signal (z-score),[2],2.18
same,glycan array binding signal (z-score),[3],0.135
same,glycan array binding signal (z-score),[4],2.81
same,glycan array binding signal (z-score),[5],2.6
same,glycan array binding signal (z-score),[6],2.31
same,glycan array binding signal (z-score),[7],1.4
same,glycan array binding signal (z-score),[8],2.51
same,glycan array binding signal (z-score),[9],1.66
same,glycan array binding signal (z-score),[10],1.34
same,glycan array binding signal (z-score),[11],6.87
same,glycan array binding signal (z-score),[12],0.964
same,glycan array binding signal (z-score),[13],1.98
same,glycan array binding signal (z-score),[14],0.056
same,glycan array binding signal (z-score),[15],1.74
same,glycan array binding signal (z-score),[16],0.226
same,glycan array binding signal (z-score),[17],-0.418
same,glycan array binding signal (z-score),[18],-0.545
same,glycan array binding signal (z-score),[19],-0.261
same,glycan array binding signal (z-score),[20],0.049
same,glycan array binding signal (z-score),[21],-0.767
same,glycan array binding signal (z-score),[22],-0.294
same,glycan array binding signal (z-score),[23],-0.262
same,glycan array binding signal (z-score),[24],-0.558
same,glycan array binding signal (z-score),[25],-0.382
same,glycan array binding signal (z-score),Gal(b1-4)GlcNAc6P,-0.6
same,glycan array binding signal (z-score),Gal(b1-6)Gal,-0.332
same,glycan array binding signal (z-score),Gal3S(b1-3)GalNAc,-0.342
same,glycan array binding signal (z-score),Gal3S(b1-3)GlcNAc,0.011
same,glycan array binding signal (z-score),[26],-0.182
same,glycan array binding signal (z-score),Gal3S(b1-4)Glc,-0.36
same,glycan array binding signal (z-score),Gal3S(b1-4)Glc6S,-0.202
same,glycan array binding signal (z-score),Gal3S(b1-4)GlcNAc,0.035
same,glycan array binding signal (z-score),[27],-0.267
same,glycan array binding signal (z-score),[28],-0.177
same,glycan array binding signal (z-score),[29],0.004
same,glycan array binding signal (z-score),Gal3S4S(b1-4)GlcNAc,0.161

# Source: the supplement of paper PMC8728848
